Results as given in article PMC11649943.

B1: human WT mGluR6, complex-glycosylated form (band C) [modified: complex N-linked glycosylation (Endo H-resistant, band C); complex N-linked glycosylation (Endo H-resistant, band C)] [human] / human ELFN1 extracellular domain … (parent)
chain 1: GLARAAGSVRLAGGLTLGGLFPVHARGAAGRACGQLKKEQGVHRLEAMLYALDRVNADPELLPGVRLGARLLDTCSRDTYALEQALSFVQALIRGRGDGDEVGVRCPGGVPPLRPAPPERVVAVVGASASSVSIMVANVLRLFAIPQISYASTAPELSDSTRYDFFSRVVPPDSYQAQAMVDIVRALGWNYVSTLASEGNYGESGVEAFVQISREAGGVCIAQSIKIPREPKPGEFSKVIRRLMETPNARGIIIFANEDDIRRVLEAARQANLTGHFLWVGSDSWGAKTSPILSLEDVAVGAITILPKRASIDGFDQYFMTRSLENNRRNIWFAEFWEENFNCKLTSSGTQSDDSTRKCTGEERIGRDSTYEQEGKVQFVIDAVYAIAHALHSMHQALCPGHTGLCPAMEPTDGRMLLQYIRAVRFNGSAGTPVMFNENGDAPGRYDIFQYQATNGSASSGGYQAVGQWAETLRLDVEALQWSGDPHEVPSSLCSLPCGPGERKKMVKGVPCCWHCEACDGYRFQVDEFTCEACPGDMRPTPNHTGCRPTPVVRLSWSSPWAAPPLLLAVLGIVATTTVVATFVRYNNTPIVRASGRELSYVLLTGIFLIYAITFLMVAEPGAAVCAARRLFLGLGTTLSYSALLTKTNRIYRIFEQGKRSVTPPPFISPTSQLVITFSLTSLQVVGMIAWLGARPPHSVIDYEEQRTVDPEQARGVLKCDMSDLSLIGCLGYSLLLMVTCTVYAIKARGVPETFNEAKPIGFTMYTTCIIWLAFVPIFFGTAQSAEKIYIQTTTLTVSLSLSASVSLGMLYVPKTYVILFHPEQNVQKRKRSLKATSTVAAPPKGEDAEAHK
chain 2: DCWLIEGDKGFVWLAICSQNQPPYEAIPQQINSTIVDLRLNENRIRSVQYASLSRFGNLTYLNLTKNEIGYIEDGAFSGQFNLQVLQLGYNRLRNLTEGMLRGLGKLEYLYLQANLIEVVMASSFWECPNIVNIDLSMNRIQQLNSGTFAGLAKLSVCELYSNPFYCSCELLGFLRWLAAFTNATQTYDRMQCESPPVYSGYYLLGQGRRGHRSILSKLQSVCTEDSYAAEVVGPPRPASGRSQPGRSPPPPPPPEPSDMPCADDECFSGDGTTPLVALPTLATQAEARPLIKVKQLTQNSATITVQLPSPFHRMYTLEHFNNSKASTVSRLTKAQEEIRLTNLFTLTNYTYCVVSTSAGLRHNHTCLTICLPRLPSPPGPVPSPSTATHY

Variants of: B1
Assay: pull-down
Details: with human ELFN1 extracellular domain fused to Fc [human]; For TM mutants, four times more transfected cells were used; parent: 1; read off a plot

Row | ratio to parent | Variant
1 | 0.43 | chain 1 E757K
2 | 0.38 | chain 1 Q673L
3 | 0.22 | chain 1 R653C
